Assay results as given in PubChem BioAssay AID1347120 (National Center for Advancing Translational Sciences (NCATS), 2019).
Screen size: about 390,000 compounds; about 930 (0.24%) were called active. Inconclusive means that the source gave no clear call. Such entries were picked first, then a sample of the others. The call rests on the fitted dose curve; in most records, active means well fitted activation curve with a large enough effect; inconclusive means small, poorly fitted or top-dose-only effect; inactive means no such curve, though single readings can be large or run the other way. Where the call is inconclusive, the potency comes from a doubtful curve fit.

Assay: qHTS for Suppressors of FUS Proteinopathy: Primary screen using FUS-linked yeast assay; further: nearly all actives have a fitted effect of over 55% in size;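 on growth rescue (activation): plate controls were DMSO vehicle for no effect and reference control for full effect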
Details: S. cerevisiae FUS-expressing, OD600, 24 h; Potency: growth rescue; growth rescue (activation): at 76.6 µM (top of the series)
Method in brief: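 Steps: raffinose overnight preculture; dilution to OD 0.005 in 2% galactose minimal medium; compound addition (concentration series); 24hr at 30C, 99% humidity; absorbance read at 600 nm.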
Potency means the concentration at half of the fitted maximal effect; tags describe the fitted curve by direction and shape.

| Compound | Potency | growth rescue (activation) |
| --- | --- | --- |
| COCCCNC(=O)CSC1=Nc2ccccc2C2=NC(CCC(=O)NCc3ccccc3OC)C(=O)N12 (configuration not stated) | inconclusive: 44.7 µM [activator, single point] |  |
| C/C(=C1/SC(=S)N(CCC(=O)O)C1=O)c1ccc(O)cc1 |  | inconclusive: 74.2% [activator] |
| COc1ccccc1CNC(=O)c1ccc2c(c1)N(Cc1cccc(C)c1)C(=O)c1ccccc1S2(=O)=O | inconclusive: 15.8 µM [activator, partial curve, poor fit] |  |
| N#CCC(=O)N/N=C/c1ccc(Sc2nc3ccccc3s2)o1 | active: 3.55 µM |  |
| c1ccc(Sc2nc(N3CCCCC3)nc(N3CCCCC3)n2)nc1 | inactive |  |
| Cc1ccc(Cl)cc1N1CCN(C(=O)Cn2ccc3ccccc3c2=O)CC1 | inconclusive: 25.1 µM [activator, partial curve, poor fit] |  |
| O=C(CSc1ncc(C(F)(F)F)cc1Cl)N1CCN(S(=O)(=O)c2ccc3ccccc3c2)CC1 | inconclusive: 17.8 µM [activator, partial curve] |  |
| COc1ccc(-c2ocnc2C(=O)N2CCN(C(c3ccccc3)c3ccccc3)CC2)cc1 | inconclusive: 50.1 µM [activator, single point] |  |
| COc1ccc2oc(C(=O)OCC(=O)N(C)CC(=O)Nc3ccc(C)cc3)c(C)c2c1 | inconclusive: 31.6 µM [activator, single point] |  |
| O=C(NC1CC1)C1=C[C@@H](c2csc3ccccc23)C[C@@H](OCc2ccc(CO)cc2)O1 | inconclusive: 28.2 µM [activator, single point] |  |
| CC1CC(C)CN(C(=O)c2cccc(S(=O)(=O)Nc3cc(C(F)(F)F)ccc3Cl)c2)C1 (configuration not stated) | inactive |  |
| Cc1ccc(C2=NS(=O)(=O)N(C)C(C(=O)Nc3cc(C)n(CC(=O)N4CCC(C)CC4)n3)=C2)cc1 | inconclusive: 28.2 µM [activator, single point] |  |
| CC(C)(C)OC(=O)NCCCCCNC(=O)c1[nH]cnc1C(=O)N[C@@H](Cc1ccccc1)C(=O)OCc1ccccc1 | inconclusive: 11.2 µM [activator, partial curve] |  |
| CCS(=O)(=O)N1Cc2ccccc2CC1C(=O)Nc1nnc(SCc2ccc(C#N)cc2)s1 (configuration not stated) | inconclusive: 12.6 µM [activator, partial curve, poor fit] |  |
| O=S(=O)(Nc1ccc(C(O)(C(F)(F)F)C(F)(F)F)cc1)c1cccs1 | inactive |  |
| CCOC(=O)c1cc2c(=O)n3ccccc3nc2n(Cc2ccco2)c1=NC(=O)c1cccnc1 | active: 31.6 µM |  |
| COCCNc1nnc(SCC(=O)Nc2sc3c(c2C(=O)c2ccccc2)CCCC3)s1 | inconclusive: 25.1 µM [activator, partial curve, poor fit] |  |
| COc1ccccc1N1CCN(c2ccc3c(c2)S(=O)(=O)c2cccc(C(=O)NCc4ccc(F)cc4)c2C3=O)CC1 | inconclusive: 25.1 µM [activator, partial curve, poor fit] |  |
| CCc1ccc(-c2csc(NC(=O)C3=COCCO3)n2)cc1 | inactive |  |
| N#CC1=C(SCC(=O)c2ccc(Cl)cc2)NC2=C(C(=O)CCC2)C1c1ccco1 (configuration not stated) | inconclusive: 25.1 µM [activator, partial curve, poor fit] |  |
| O=C(c1cc(-c2cccc3ccccc23)nc2ccccc12)N1CCN(CCO)CC1 | inactive |  |

| Compound | Potency | growth rescue (activation) |
| --- | --- | --- |
| COc1cc(C2C3=C(CCCC3=O)Nc3[nH]n(-c4ccccc4)c(=O)c32)ccc1O (configuration not stated) | inconclusive: 44.7 µM [activator, single point] |  |
| CCCn1c(SCc2nc(-c3ccc(OC)cc3OC)no2)nnc1-c1ccc(Cl)cc1 | inconclusive: 22.4 µM [activator, single point] |  |
| c1csc(C(c2nnnn2C2CCCCC2)N2CCCC3(CCCCC3)C2)c1 (configuration not stated) | inactive |  |
| NC(=O)C1CCN(C(=S)c2ccc(-c3ccc(Br)cc3)o2)CC1 | inactive |  |
| CCOc1ccc(CCN2C(=S)N([C@@H](Cc3ccc(O)cc3)CN3CCC[C@@H]3CN3C(=S)NC[C@@H]3CC(C)C)C[C@@H]2Cc2ccc(O)cc2)cc1 | inconclusive: 20 µM [activator, partial curve, poor fit] |  |
| COC(=O)c1[nH]c2c(c1C(=O)OC)CCc1ccccc1-2 | inactive |  |
| COCCCn1c(SCC(=O)Nc2sc3c(c2C#N)CCCC3)nnc1-c1ccncc1 | inconclusive: 31.6 µM [activator, single point] |  |
| CC[C@]12c3[nH]c4ccc(Cl)cc4c3CCN1C(=O)[C@@H](CC(=O)NCC13CC4CC(CC(C4)C1)C3)C[C@@H]2C(=O)N1CCN(C(=O)c2ccco2)CC1 | inconclusive: 14.1 µM [activator, partial curve, poor fit] |  |
| CCOc1ccc(CC(=O)NCCc2csc(-c3ccc(C)cc3)n2)cc1 | inconclusive: 11.2 µM [activator, single point] |  |
| CCCCN(CCCC)S(=O)(=O)c1ccc(NC(=O)c2cccs2)cc1 | active: 2 µM |  |
| CC(=O)Nc1ccc(C(=O)CSc2nnnn2C(C)C)cc1 |  | inconclusive: 45.4% [activator] |
| COc1ccc(NC(=O)COc2ccccc2)cc1Cl | inactive |  |
| N#Cc1ccc(C(=O)Nc2nc(SCc3ccc(Cl)cc3)n[nH]2)cc1 | inactive |  |
| CCOC(=O)c1c(NC(=O)c2ccc(S(=O)(=O)N3CCC(C)CC3)cc2)sc2c1CCN(C)C2 | inconclusive: 50.1 µM [activator, single point] |  |
| NC(=O)[C@H]1CC2(CC(c3cccc(NC(=O)[C@H]4CCC(=O)N4)c3)=NO2)CN1C(=O)CC(c1ccccc1)c1ccccc1 (some centres not stated) | inconclusive: 14.1 µM [activator, partial curve] |  |
| CC1(C)C2CCC1(C)C(OC(=O)c1ccccc1C(=O)O)C2 (configuration not stated) | inactive |  |
| COc1ccc(-n2c(SCC(=O)Nc3ccc(Cl)c(C)c3)nc3n[nH]c(C)c3c2=N)cc1 | inconclusive: 50.1 µM [activator, single point] |  |
| O=C(c1cc2ccccc2oc1=O)N1CCN(C(=O)C2CCCO2)CC1 (configuration not stated) | inconclusive: 50.1 µM [activator, single point] |  |
| Cc1ccc(C)c(Sc2ccc(NC(=O)CCN3C(=O)NC4(CCCC4)C3=O)cc2)c1 | inconclusive: 35.5 µM [activator, single point] |  |
| Cc1nn(-c2ccccc2)c(C)c1/C=N\N1CCN(Cc2ccccc2Cl)CC1 | inactive |  |
| COc1ccc(CCN2C(=O)CC(Sc3ncccc3C(=O)O)C2=O)cc1OC (configuration not stated) | inactive |  |

| Compound | Potency | growth rescue (activation) |
| --- | --- | --- |
| CCC(C)[C@H](NC(=O)[C@H](Cc1ccccc1)n1c(=O)[nH]c2ccccc2c1=O)C(=O)NCC1CCC(C(=O)O)CC1 (some centres not stated) | inconclusive: 31.6 µM [activator, single point] |  |
| Cc1ccc(CNC(=O)c2ccc(N3CCC4(CC3)CC(c3cccc(Br)c3)=NO4)c(N)c2)cc1 | active: 17.8 µM |  |
| COc1cc(C(CC(=O)N2CCN(c3ccccc3)CC2)c2c(OC)cc(OC)c3ccc(=O)oc23)cc(OC)c1OC (configuration not stated) | inconclusive: 28.2 µM [activator, single point] |  |
| CCC(C)NC(=O)c1cn(CC)c2cc(N3CCN(C(=O)c4ccco4)CC3)c(F)cc2c1=O (configuration not stated) | inconclusive: 44.7 µM [activator, single point] |  |
| COc1ccccc1-n1c(SCC(=O)NC(C)(C)C)nc(O)c(Cc2ccccc2)c1=O | inconclusive: 25.1 µM [activator, single point] |  |
| COC(=O)c1nc2n(n1)C(c1cccc(Cl)c1)C(C(=O)Nc1ccccc1OC)=C(C)N2 (configuration not stated) | inconclusive: 50.1 µM [activator, single point] |  |
| O=C(NCC(F)(F)F)c1cc2c(c(-c3cccc(-c4ccccc4F)c3)n1)[C@@H](CCO)N(C(=O)CC1CC1)C2 | inconclusive: 35.5 µM [activator, partial curve, poor fit] |  |
| CCN(c1cccc(C)c1)S(=O)(=O)c1nnc(NC(=O)C2CCCCC2)s1 | inactive |  |
| CCc1ccc(CNC(=O)CN2C(=O)c3cccnc3Oc3ccc(Cl)cc32)cc1 | inconclusive: 50.1 µM [activator, single point] |  |
| Cc1ccc(-n2nc(C)c3nc(CCC(=O)Nc4cccc(C)c4C)c(=O)n(C)c32)cc1 | inactive |  |
| CC(C)(C)N1C(=O)[C@H]2[C@@H](c3ccc(Br)cc3)N3C(=O)N(c4cccc(Cl)c4)C(=O)[C@@]3(Cc3ccccc3)[C@H]2C1=O | active: 12.6 µM |  |
| Cc1cccc(N2C(=O)N(Cc3cc(=O)n4ccccc4n3)c3ccccc3S2(=O)=O)c1 | inconclusive: 39.8 µM [activator, partial curve, poor fit] |  |
| Cc1ccc(-c2cnc(C(O)c3cccc(Cl)c3)[nH]2)cc1 (configuration not stated) | inactive |  |
| COc1ccc(-c2csc(Nc3ccccn3)n2)cc1OC | inactive |  |
| C/C=C(\C)C(=O)Nc1cccc(C2=NOC3(C2)C[C@H](C(N)=O)N(C(=O)C(c2ccccc2)c2ccccc2)C3)c1 (some centres not stated) | inconclusive: 28.2 µM [activator, single point] |  |
| O=C1N[C@@H](Cc2ccccc2)COC(=O)[C@H](Cc2ccc(F)cc2)CC/C=C/C[C@@H]1CC(=O)N(CCO)Cc1ccccc1 | inconclusive: 28.2 µM [activator, single point] |  |
| CN(C)C1(CNC(=O)C2CCN(S(=O)(=O)c3c(Cl)cccc3Cl)CC2)CCCCC1 | inactive |  |
| CCOC(=O)c1ccc(Oc2nc(NC(C)(C)C)nc(N(C)C)n2)cc1 | inactive |  |
| Cc1ccc(C(=O)N[C@H](C(=O)N2CCN(c3ccccc3F)CC2)C(C)C)cc1 | inactive |  |
| C[C@@H]1CCCCO[C@H](CN(C)C(=O)Nc2ccc3c(c2)OCO3)[C@H](C)CN([C@@H](C)CO)C(=O)c2cc(NS(=O)(=O)c3ccc(Cl)cc3)ccc2O1 | inconclusive: 14.1 µM [activator, partial curve, poor fit] |  |
